# Results: the supplement of paper PMC4604168 (melanoma cell lines)
# The list shows a part of the results. Most values come without repeats; read them as rough.
# Key:
# Assay in all cases: cell count relative to DMSO control; melanoma cells; higher = more viable cells
# Details in all cases: library dose: low library concentration; 72 h
# MeWo = tested on: MeWo
# RPMI7951 = tested on: RPMI7951
# RVH-421 = tested on: RVH-421
# SkMel28 = tested on: SkMel28
# SkMel2 = tested on: SkMel2
# SkMel30 = tested on: SkMel30
# SkMel5 = tested on: SkMel5
# UACC257 = tested on: UACC257
# UACC62 = tested on: UACC62
# WM115 = tested on: WM115
# WM1716 = tested on: WM1716
# WM1745 = tested on: WM1745
# WM3526 = tested on: WM3526
# WM3619 = tested on: WM3619
# WM451Lu = tested on: WM451Lu
# MZ2-MEL = tested on: MZ2-MEL
# 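Further: cell number obtained by counting DAPI-stained nuclei in high-throughput microscope images with image analysis software, screen run in 1,536-well plates.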
SMILES,cell count (MeWo) [%],cell count (RPMI7951) [%],cell count (RVH-421) [%],cell count (SkMel28) [%],cell count (SkMel2) [%],cell count (SkMel30) [%],cell count (SkMel5) [%],cell count (UACC257) [%],cell count (UACC62) [%],cell count (WM115) [%],cell count (WM1716) [%],cell count (WM1745) [%],cell count (WM3526) [%],cell count (WM3619) [%],cell count (WM451Lu) [%],cell count (MZ2-MEL) [%]
"CCCCCCCCc1ccc(CCC(N)(CO)CO)cc1 [fingolimod] + CC(C)(C)c1cnc(CSc2cnc(NC(=O)C3CCNCC3)s2)o1 [SNS-032] (first compound 2 µM, partner dose 0.01 µM)",99.6,66.9,111,85.4,103,98.9,86.1,76.9,79.2,92.3,82.2,88.9,99.5,101,103,–
"CCCCCCCCc1ccc(CCC(N)(CO)CO)cc1 [fingolimod] + O=C(CCCCCCC(=O)Nc1ccccc1)NO [vorinostat] (first compound 2 µM, partner dose 0.08 µM)",109,80.7,96.8,80.5,92.9,93.1,86.5,99.4,93.3,88.6,86.8,89.7,49.9,69.8,98.9,–
"CC(C)(C)c1cnc(CSc2cnc(NC(=O)C3CCNCC3)s2)o1 + Cc1cc([N+](=O)[O-])ccc1NS(=O)(=O)c1cc(Cl)ccc1Cl [FH535] (first compound 0.01 µM, partner dose 1 µM)",95.7,113,97.5,79.8,–,100,83.4,89.6,76.2,87.7,86.6,94.9,77.2,98.5,100,92.6
"CCCCCCCCc1ccc(CCC(N)(CO)CO)cc1 [fingolimod] + COc1ccc(COc2ccc(Cc3cnc(N)nc3N)cc2OC)cc1 [GW2580] (first compound 2 µM, partner dose 1 µM)",100,94,93.8,96.1,100,103,101,102,88.3,98.4,79,87.5,86.8,98.2,107,–
"CN(NC(=O)CC(=O)NN(C)C(=S)c1ccccc1)C(=S)c1ccccc1 + N#Cc1c(O)c2c(-c3ccc(-c4ccccc4O)cc3)csc2[nH]c1=O [A769662] (first compound 0.006 µM, partner dose 2 µM)",112,92.7,90.3,102,–,87.5,101,86.4,80.2,86.9,83.1,55.9,96.1,78.9,108,–
"CN(NC(=O)CC(=O)NN(C)C(=S)c1ccccc1)C(=S)c1ccccc1 + O=c1cc(-c2cccc3c2Sc2ccccc2S3)oc(N2CCOCC2)c1 [KU55933] (first compound 0.006 µM, partner dose 1 µM)",91.5,120,129,81,–,77.1,96.7,110,110,77.5,91.8,58.3,97.7,72.8,114,102
"CCc1ccc(CCOc2ccc(CC3SC(=O)NC3=O)cc2)nc1 (configuration not stated) [pioglitazone] + O=C(O)C(=O)Nc1sc2c(c1C(=O)O)CCNC2 [TCS401] (first compound 2 µM, partner dose 1.66667 µM)",85.3,100,112,87.8,–,108,102,91.4,97.7,95.6,93.8,77.6,70.4,131,98.9,–
"NC(=O)c1ccc(N(C(N)=O)c2c(F)cccc2F)nc1-c1ccc(F)cc1F + CC(C)CCN1c2nc(Nc3cc(F)c(O)c(F)c3)ncc2N(C)C(=O)C1C [BID1870] (first compound 0.4 µM, partner dose 0.2 µM)",86.6,89.8,89.9,83.5,–,103,103,95.9,94.8,101,116,103,97.9,65.5,96,–
